Data on one molecule can be found in PMC3112535 (Nature Communications, 2011).

The experiment has as its target yeast histone H4 (S. cerevisiae, UniProt P02309). Briefly: SEC-MALS.

B1: Cse4 […] (domain or fragment)
chain: not shown
In the case of B1, the binding result is “binds”.
